± gives the standard deviation of the averaged measurements. Some of the results follow.

The subject of the experiment is PfAP2-G AP2 domain (GST-tagged). Kind of experiment: gcPBM binding intensity (ln(normalized median fluorescence intensity)); higher = stronger DNA binding. The procedure, abridged: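 Binding of GST-tagged P. falciparum DNA-binding domains, expressed in E. coli and used at about 25 μg on average, was carried out for 1 h in 1× PBS containing 1% milk, 0.2 mg/ml BSA, 0.5% salmon testes DNA and 0.03% Triton X-100. The target was an Agilent 4 × 180k array of primer-extended double-stranded 36-bp intergenic genomic probes plus negative controls, read with Alexa488 anti-GST antibody at 488 nm. Binding intensity is the highest Masliner-normalised natural-log median intensity across replicate spots of either probe orientation.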
For “ATATAATTACATTGATGTACACGAAATGATTAACAT [XGTACX_site5183]”, the “gcPBM binding intensity (ln)” value turned out to be 11.7 ± 1.1.

In the case of “TTTATACAATTAGACACACACAAAAAGTATATATAT [CACACA_site1082]”, the “gcPBM binding intensity (ln)” value amounted to 10.14 ± 0.078. Next, “TGATTTGTGCCGATTTGTACACATTTATATATATAT [XGTACX_site2154]”: 11.3 ± 0.78. Next, “AACAGACAAAGACACACACACATACATACATACATA [CACACA_site6351]”: 10.2 ± 0.22; “TATCATATTTTTATATGTACATAACATAAAAAAAAA [XGTACX_site2152]”: 11.2 ± 0.79.

Turning to “TACATACATACATACACACACATATATATATATATA [CACACA_site1944]”, the “gcPBM binding intensity (ln)” value is 10.5 ± 0.23.

With “ATTTTTTCATATTCTACACACGTGAACAAATGAGTC [CACACA_site5635]”, the “gcPBM binding intensity (ln)” value turned out to be 10.3 ± 0.22.

“CAATGTTAACATATTACACACATATGTATATATAAT [CACACA_site8878]”: the “gcPBM binding intensity (ln)” value is 10.12 ± 0.035. Next, “GACAACTCTTTTCATACACACAAAAAAAAAAAAATA [CACACA_site2361]”: 10.3 ± 0.35; “TCACATATATATTAATGTACATATATTTTTTATGTA [XGTACX_site5125]”: 11.2 ± 0.54. In the case of “GATATATCCTATGTTATTTTTATGGTGTAATTTAGT [XGTACX_negctrl_site112]” it was 10 ± 0.14. In the case of “CATCCACAAATATGTACACACATATATAAATATGTA [CACACA_site7407]”, the “gcPBM binding intensity (ln)” value stood at 11.4 ± 0.93.

As to “ATAATAACAAGGCGCTGTACTGTACCGTTTTTCATA [XGTACX_site6135]”, the “gcPBM binding intensity (ln)” value came out at 11.2 ± 0.77. Next, “TTTTTTTTATGTATCACACATAATTTTTTATTATGA [CACACA_site5534]”: 9.97 ± 0.057; “AGAAAGAAAATATATACACACAAAAAAAAATATATA [CACACA_site1412]”: 9.945 ± 0.049. Next, “GATTTATACAAATATGTACACACTAATTATATATTA [CACACA_site8045]”: 11.5 ± 0.87; “GGCATGACTATCTGCACACATAAAAATAAGAAATAC [CACACA_site841]”: 10.2 ± 0.2; “TTTTTTTTCTCACAAAAAATAATTAACAAAAAGGAA [XGTACX_negctrl_site154]”: 10.2 ± 0.32. Regarding “ATAAACAGAAAAAAAAAAAAAAAAAAAAAAAAAAAA [CACACA_negctrl_site143]”, the “gcPBM binding intensity (ln)” value was found to be 9.69 ± 0.42.

Regarding “ATAAAAAAAAAAAATACACACATATATTTATTTATA [CACACA_site6903]”, the “gcPBM binding intensity (ln)” value was determined as 9.6 ± 0.042.

Take “TTTATATGGATTTTTTTTTAATATTTCTTTTAATTT [TGCATGCA_negctrl_site361]”: the “gcPBM binding intensity (ln)” value stood at 9.62 ± 0.11. On to “TTAATATAAGCAAATACACACACACCGATATATATA [CACACA_site9269]”, for which the “gcPBM binding intensity (ln)” value was 10.1 ± 0.16. For “GTTGCACAATGTTACACACACAATATAGATCGTTAA [CACACA_site6717]”, the “gcPBM binding intensity (ln)” value amounted to 10.07 ± 0.028. In the case of “TAAAAAAAAAAAAAAAGTACAAAAAAAATATTTTTT [XGTACX_site7941]” it was 11.4 ± 0.57.

With “ATATGCTATTTACTAGTGCAAAATATTTAAAATATG [GTGCAC_site9517]”, the “gcPBM binding intensity (ln)” value amounted to 10.2 ± 0.28. For “TTATTCTAAAAATATACACACAACAACAAACAAACA [CACACA_site1543]”, the “gcPBM binding intensity (ln)” value was determined as 10.5 ± 0.41.

Consider “ATGTGTTTCTTCAATTGTACTAAAAGGTATATATTG [XGTACX_site4608]”, for which the “gcPBM binding intensity (ln)” value is 11 ± 0.65. In the case of “TTCAGGTAATAACATTGTACATGTGTATCATAATTA [XGTACX_site6740]” it was 11 ± 0.47; in that of “TTTTTTTTTTTTTTTTTTTTACAGAAAAATATTAAA [CACACA_negctrl_site128]”, 9.62 ± 0.45. Next, “AATCATTAAAGCATAATGTTTATGATCAATATGAAA [CACACA_negctrl_site887]”: 9.715 ± 0.064; “TAGTAACTTGTATTCACACAAATTATATTATATTAC [CACACA_site5041]”: 9.965 ± 0.021; “TATATAATATATAAATGTACTTTTGTCTTATATGAA [XGTACX_site7211]”: 11 ± 0.73.

Consider “ATACTATAATATAAAACACACATATGTACCTTCTAA [CACACA_site7323]”, for which the “gcPBM binding intensity (ln)” value is 10.8 ± 0.54. “ATTATTTAAATTTAACGTACGGAATAAGACATAGAT [XGTACX_site8622]”: the “gcPBM binding intensity (ln)” value was 11.1 ± 0.59. Next, “AAAAAAAATAATGTTGCACACAACAACAAACAAAAA [CACACA_site3290]”: 10.1 ± 0.31; “AATATATATATATGTGCACACATATATAATATGTAT [CACACA_site716]”: 10.2 ± 0.18. For “TACACCCACATATATATACACACTTTTATTTAAATA [CACACA_site1596]”, the “gcPBM binding intensity (ln)” value worked out at 10.2 ± 0.071. In the case of “CAATATGGAAAATAAAGTACGCACACAAAAATTCTC [XGTACX_site4793]” it was 11.5 ± 0.79; in that of “TAGATAAAATGAACATGTACTCATCTTAATATATAT [XGTACX_site34]”, 11.4 ± 1.1. In the case of “TGCTCTAATTTATATACACACAAATATGTACACATA [CACACA_site7845]” it was 11.7 ± 1.2. Next, “TTATATCCAACTTGAAAAAAGGTATATGTTTATATA [CACACA_negctrl_site1746]”: 9.91 ± 0.028.

As to “TTTTTTTTTTTTTGGAGTACATGTTTATAACATAAT [XGTACX_site1799]”, the “gcPBM binding intensity (ln)” value was determined as 11.6 ± 1.1. Take “TTTCATAAATAATAAAATAAAATATGAAGCAAAAGG [CACACA_negctrl_site1767]”: the “gcPBM binding intensity (ln)” value is 9.99 ± 0.11. In the case of “TAATTTTTTTAAGAGAGTACATGACTCAACAGTTTA [XGTACX_site3103]” it was 11.1 ± 0.75.

The values are drawn from the supplement of paper PMC11417369.
